# Measured values: article PMC4336329 (PLoS ONE, 2015)
# About 2,200 (0.71%) of roughly 310,000 compounds showed an effect of 50% or more. The effect is printed as a negative number. This is one part of the list.
# Target: human ether-à-go-go-related gene (hERG) potassium channel (human, UniProt Q12809)
# Experiment: primary screen, population patch clamp on CHO cells stably expressing hERG
# human ether-à-go-go-related gene (hERG) potassium channel, sequence (Q12809 whole entry, looked up): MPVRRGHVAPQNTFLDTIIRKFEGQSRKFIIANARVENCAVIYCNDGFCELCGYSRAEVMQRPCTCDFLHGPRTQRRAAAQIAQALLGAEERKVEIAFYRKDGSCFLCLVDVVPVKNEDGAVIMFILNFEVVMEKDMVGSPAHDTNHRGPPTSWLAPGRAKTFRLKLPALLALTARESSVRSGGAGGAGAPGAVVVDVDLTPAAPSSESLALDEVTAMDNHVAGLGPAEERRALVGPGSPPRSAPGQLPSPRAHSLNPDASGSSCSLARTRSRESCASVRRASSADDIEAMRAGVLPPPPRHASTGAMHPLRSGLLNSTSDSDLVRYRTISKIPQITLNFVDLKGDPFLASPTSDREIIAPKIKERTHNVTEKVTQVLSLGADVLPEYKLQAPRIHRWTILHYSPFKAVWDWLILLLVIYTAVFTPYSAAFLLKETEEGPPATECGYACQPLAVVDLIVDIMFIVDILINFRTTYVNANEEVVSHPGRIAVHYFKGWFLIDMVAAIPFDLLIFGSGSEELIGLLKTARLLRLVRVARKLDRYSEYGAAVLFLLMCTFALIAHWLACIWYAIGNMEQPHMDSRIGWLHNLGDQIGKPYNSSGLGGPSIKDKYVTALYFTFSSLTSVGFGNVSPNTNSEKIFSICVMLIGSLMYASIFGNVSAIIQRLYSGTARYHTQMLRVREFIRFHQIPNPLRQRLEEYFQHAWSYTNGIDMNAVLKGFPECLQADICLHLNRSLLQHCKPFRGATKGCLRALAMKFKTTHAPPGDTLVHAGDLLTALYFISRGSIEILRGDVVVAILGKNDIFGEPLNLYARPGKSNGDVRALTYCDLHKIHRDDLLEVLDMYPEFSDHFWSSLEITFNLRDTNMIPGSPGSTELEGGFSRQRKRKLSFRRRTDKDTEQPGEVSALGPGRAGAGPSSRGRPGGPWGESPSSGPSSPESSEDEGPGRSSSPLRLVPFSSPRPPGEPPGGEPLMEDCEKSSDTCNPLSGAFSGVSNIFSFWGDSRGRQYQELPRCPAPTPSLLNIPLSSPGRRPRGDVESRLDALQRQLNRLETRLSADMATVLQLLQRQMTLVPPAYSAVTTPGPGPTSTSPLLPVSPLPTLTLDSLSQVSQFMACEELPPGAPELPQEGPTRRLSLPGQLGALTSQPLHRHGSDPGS
row,Structure (SMILES),"hERG current change (%, negative = inhibition) at 1uM [%]"
1,COc1ccc(CC(=O)NNc2ncnc3c2cnn3-c2ccc(C)cc2)cc1OC,8.68
2,Cc1ccn2c(-c3csc(NCc4ccco4)n3)c(C)nc2c1,-24.7
3,CC1Cc2ccccc2N1C(=O)COC(=O)c1ccc(S(=O)(=O)N(C)C)cc1 (centres unmarked),15.2
4,CC1(c2nnc(Cc3ccccc3)o2)CC(c2ccc(Cl)cc2)=NO1 (centres unmarked),-11.4
5,COc1cc(/C=N/n2c(COc3ccccc3)n[nH]c2=S)cc(Br)c1O,14.5
6,Cc1cc(/C=N/NC(=O)CC2(C)OCCO2)c(C)n1-c1cc(Cl)cc(Cl)c1,4.79
7,Nc1ccnn1Cc1ccc(Br)s1,12.9
8,O=C(Nc1ccc2c(c1)OCO2)c1cccc(F)c1,10
9,COC(=O)c1ccc(NC(=O)CC2C(=O)N(C)C(=S)N2Cc2ccc(S(N)(=O)=O)cc2)cc1 (centres unmarked),13.9
10,Nc1cc(N2CCOCC2)c(Cl)cc1[N+](=O)[O-],6.48
11,O=C(O)c1ccccc1-c1cc2ccccc2[nH]1,12
12,O=C(CC1CC2CCC1C2)N1CCN(S(=O)(=O)c2ccccc2C(F)(F)F)CC1 (centres unmarked),2.47
13,OC(c1ccc2c(c1)OCO2)c1nccc2ccccc12 (centres unmarked),6.49
14,CC(C)n1c(-c2ccccc2)nc(=S)c2c1CCCC2,6.31
15,Cc1cc(SCc2ccccc2F)nc(=O)[nH]1,15.1
16,Cc1[nH]c2ccccc2c1C(=O)CSc1ncn[nH]1,15.9
17,Cl.FC(F)Sc1ccc(NC2=NCCCCC2)cc1,-7.36
18,Cc1cccn2c(/C=N/OCc3ccc(F)cc3)c(-c3ccc(Cl)cc3)nc12,12.4
19,CCCCC1C(=O)N(c2ccccc2)N(c2ccccc2)C1=O,14.1

row,Structure (SMILES),"hERG current change (%, negative = inhibition) at 1uM [%]"
1,CCOc1ccc(C2CC(=O)c3c([nH]c(C(=O)OC)c3C)C2)cc1OC (centres unmarked),2.14
2,CCC(C)NC(=O)Cn1cnc2sc(C)c(S(=O)(=O)N3CCN(c4ncccn4)CC3)c2c1=O (centres unmarked),17.7
3,O=[N+]([O-])c1ccc(S(=O)(=O)NCCc2cn3ccccc3n2)cc1,-15.5
4,NNC(=O)c1sccc1OCc1ccc(F)cc1,8.12
5,CCN1CCN(CCCNC(=O)c2ccc3c(c2)NC(=O)/C(=C\c2cccc(C)c2)S3)CC1,0.165
6,COCCN(CC(=O)NCC1CCCO1)C(=O)CCC(=O)Nc1ccccn1 (centres unmarked),14.8
7,CCCC1(c2ccccc2)NC(=O)N(CC(=O)NCc2ccc(C)cc2)C1=O (centres unmarked),12.8
8,Cc1cc(NS(=O)(=O)c2ccccc2)c([N+](=O)[O-])cc1C,14
9,COc1ccc(NC(=O)CN2C(=O)CSc3ccc(S(=O)(=O)N4CCC(C)CC4)cc32)cc1,20.8
10,CCOC(=O)C1=C(O)/C(=C/c2cc(OC)c(OC)c(OC)c2)SC1=Nc1ccc(OC)cc1,8.28
11,COc1cc(C(CC(=O)Nc2cc(C)ccn2)N2Cc3ccccc3C2=O)cc(OC)c1OC (centres unmarked),9.76
12,COC(=O)CC/C(O)=C1\C(=O)CC(C)(C)CC1=Nc1ccccc1OC,13.8
13,Cc1ccc2c(c1)nnn2C1CCN(CC(=O)NNC(=O)c2ccco2)CC1,13.5
14,CCC(=C(c1ccc(OC)cc1)c1ccc(OC)cc1)c1cn(CC(O)CN(CCO)CCO)c2ccccc12.O=C(O)/C=C\C(=O)O (centres unmarked),10
15,COC(=O)C1(C)CCC(C(=O)Nc2ccccc2)C1(C)C (centres unmarked),8.57
16,CCCCCC(=O)NC(CC(=O)OC)c1ccc2c(c1)OCO2 (centres unmarked),3.19
17,COc1cccc(NC(=O)Nc2cc(C)ccc2OC)c1,11.1
18,O=C(CSc1nnc2n1CCCCC2)Nc1ccc(N2CCOCC2)cc1,-1.75
19,COc1cccc(NC(=O)CN(C)C(=O)CSc2ncnc3sc(C)c(C)c23)c1,11.7

row,Structure (SMILES),"hERG current change (%, negative = inhibition) at 1uM [%]"
1,CCCOc1ccc(C(O)C(CN2CCOCC2)c2ccccc2)cc1.Cl (centres unmarked),5.72
2,Cn1ccnc1C1CCCCN1Cc1nc(-c2ccc3c(c2)OCO3)no1 (centres unmarked),3.68
3,Cc1ccc(C(=O)OC/C(O)=C(\C#N)c2nc3ccccc3[nH]2)cc1S(=O)(=O)N1CCOCC1,-1.51
4,Cc1nn(C)c(C)c1NC(=O)c1ccc(Cl)cc1,14.8
5,COc1ccc(CCNC(=S)N(C)C)cc1OC,30.2
6,CCOC(=O)N(c1ccccc1)P1(=S)OCCO1,6.65
7,Cc1ccc(C(=O)OC2CCOC2=O)cc1NC(=O)c1ccco1 (centres unmarked),11
8,COc1cccc(N/C=C/C(=O)c2ccc(Br)cc2)c1,12.3
9,CCc1cccc2c(C(=O)CSc3nnc(C4CC4)o3)c[nH]c12,5.25
10,C=CCn1c(SCc2c(C(=O)OC)sc(N)c2C(=O)OC)nnc1-c1ccc(Br)cc1,-16.1
11,CC1CCCCN1CCNC(=O)C1CCN(S(=O)(=O)c2cccc3cccnc23)CC1 (centres unmarked),1.57
12,Nc1c2ccccc2[nH+]c2ccccc12.[Cl-],7.31
13,O=C(NC1CC(=O)N(c2ccc3c(c2)OCCO3)C1)N1CCC(O)CC1 (centres unmarked),8.06
14,COc1ccc(N2CC(C(=O)OCC(=O)c3ccc(C)cc3)CC2=O)cc1 (centres unmarked),10.8
15,CCC(C)NC(=O)c1cn(CC)c2cc(N3CCN(C)CC3)c(F)cc2c1=O (centres unmarked),6.99
16,CCOC(=O)N1CCC(NC(=O)C2CCN(C(=O)c3cc4sccc4n3CC)CC2)CC1,12.2
17,CC1CCN(C(=S)NC(=O)c2ccco2)CC1,12.9
18,CC1CCCCC12NC(=O)N(CC(=O)N1CCN(Cc3ccc(C#N)cc3)CC1)C2=O (centres unmarked),3.59
